About 14,000 (4.5%) of roughly 310,000 compounds showed an effect of 50% or more. The effect is printed as a negative number. The list shows a part of the results.
Target: human ether-à-go-go-related gene (hERG) potassium channel (human, UniProt Q12809)
Assay: primary screen, population patch clamp on CHO cells stably expressing hERG
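Further: peak tail current of the secondary pulse compared with the same well before compound.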

Chain of human ether-à-go-go-related gene (hERG) potassium channel (Q12809 whole entry, looked up): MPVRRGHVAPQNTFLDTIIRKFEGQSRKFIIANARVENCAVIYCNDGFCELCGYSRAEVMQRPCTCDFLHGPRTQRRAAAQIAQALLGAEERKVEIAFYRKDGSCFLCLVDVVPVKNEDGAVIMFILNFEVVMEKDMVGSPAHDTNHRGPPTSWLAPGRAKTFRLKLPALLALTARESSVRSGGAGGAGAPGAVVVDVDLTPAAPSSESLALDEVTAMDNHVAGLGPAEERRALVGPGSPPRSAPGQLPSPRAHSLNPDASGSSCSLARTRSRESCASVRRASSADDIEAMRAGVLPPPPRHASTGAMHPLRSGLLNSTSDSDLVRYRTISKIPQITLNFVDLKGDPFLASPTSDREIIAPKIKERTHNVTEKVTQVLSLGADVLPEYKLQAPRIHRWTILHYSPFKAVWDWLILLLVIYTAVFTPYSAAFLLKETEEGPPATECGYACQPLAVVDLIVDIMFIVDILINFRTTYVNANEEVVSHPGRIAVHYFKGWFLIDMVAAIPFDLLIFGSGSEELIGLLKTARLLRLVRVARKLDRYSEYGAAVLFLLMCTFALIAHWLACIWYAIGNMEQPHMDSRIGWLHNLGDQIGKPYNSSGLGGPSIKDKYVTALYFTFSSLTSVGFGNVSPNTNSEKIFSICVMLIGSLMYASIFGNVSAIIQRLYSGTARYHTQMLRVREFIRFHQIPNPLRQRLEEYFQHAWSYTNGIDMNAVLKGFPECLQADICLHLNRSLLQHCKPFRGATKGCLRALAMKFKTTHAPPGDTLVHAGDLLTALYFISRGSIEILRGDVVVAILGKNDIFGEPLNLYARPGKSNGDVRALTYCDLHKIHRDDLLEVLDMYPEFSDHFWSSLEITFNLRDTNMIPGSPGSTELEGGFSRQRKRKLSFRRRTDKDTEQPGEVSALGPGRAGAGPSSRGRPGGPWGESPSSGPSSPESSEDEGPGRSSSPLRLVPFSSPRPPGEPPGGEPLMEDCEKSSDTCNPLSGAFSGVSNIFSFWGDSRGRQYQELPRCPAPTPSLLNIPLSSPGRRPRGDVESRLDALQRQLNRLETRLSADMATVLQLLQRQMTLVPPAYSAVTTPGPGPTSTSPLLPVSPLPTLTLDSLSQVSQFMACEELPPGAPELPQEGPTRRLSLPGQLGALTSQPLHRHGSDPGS

Structure (SMILES) | hERG current change (%, negative = inhibition) at 10uM [%]
CCOc1ccc(-c2nnn(CC(=O)NCc3ccccc3)n2)cc1 | 24.4
O=C(NC(=S)Nc1ccc(Br)cn1)c1cccnc1 | 12.7
Cl.O=C1CC[C@@]2(O)[C@H]3Cc4ccc(O)c5c4[C@@]2(CCN3CC2CC2)[C@H]1O5 | 0.91
CCn1c(CC(=O)Nc2ccc(F)cc2)nnc1SCC(=O)Nc1nnc(C)s1 | 15.6
COc1ccc(NC(=O)NC(C)(C(F)(F)F)C(F)(F)F)cc1 | 9.59
c1ccc(OCCOc2ncnc3sccc23)cc1 | 3.89
CCCc1cc(NCc2ccccn2)n2nc(C)c(-c3ccccc3)c2n1 | 4.77
COC(=O)c1ccccc1NC(=O)N1CCN(C(=O)c2ccco2)CC1 | -25
Cc1ccccc1NC(=O)C1CCN(S(=O)(=O)c2cccc3nonc23)CC1 | 1.67
COCCCn1c(SCC(=O)N2CCc3ccccc32)nnc1-c1ccoc1C | -14.9
COC(=O)c1cc(F)c(-n2cncn2)c(F)c1 | -6.25
CC(C)C(=O)Nc1ncc(C(F)(F)F)cc1Cl | 23.1
CCN(CC(=O)Nc1ccc(OC)cc1)C(=O)c1ccc2c(c1)NC(=O)C(C)S2 (stereo not shown) | -10.5
CCOC(=O)Cn1c(CN(Cc2ccccc2)Cc2ccccc2)nc2c1c(=O)n(C)c(=O)n2C | -31.7
O=C(CSc1n[nH]c(-c2cccs2)n1)N1CCN(S(=O)(=O)c2ccccc2)CC1 | 1.6
O=C(CNC(=O)c1cccc(Cl)c1)NCC(c1cccs1)N1CCOCC1 (stereo not shown) | -13.9
COC(=O)[C@@]12CCCCN1[C@H](c1ccc(-c3cc(C(C)=O)cs3)cc1)[C@H]1C(=O)N(C)C(=O)[C@H]12.O=C(O)C(F)(F)F | 9.06
CC(=O)N1CC=C2C(C#N)=C(N)C(C#N)(C#N)C(C)C2C1 (stereo not shown) | 11.9
CSc1ccccc1NC(=O)CN(C)C(=O)c1cccc(S(=O)(=O)N(C)C)c1 | 8.78
CCOC(=O)C(=CNCC(=O)OC)C(=O)OCC | 10.7
CSc1ccc(Cn2nnc(C(=O)NCc3ccccc3)c2N)cc1 | -0.141
CS(=O)(=O)NC1c2cccc3cccc(c23)C1Sc1nncn1/N=C/c1ccco1 (stereo not shown) | -21.1

Structure (SMILES) | hERG current change (%, negative = inhibition) at 10uM [%]
CN(CCNC(=O)CCNC(=O)Cn1ccc2ccccc2c1=O)Cc1ccccc1 | 0.657
CCC(=O)NC(=S)Nc1ccc(NC(=O)COc2ccccc2)cc1 | 17.5
C=CCn1c(=NC(=O)c2cccs2)sc2cc(NC(C)=O)ccc21 | 8.25
Cc1nn(CCC#N)c(NC(=O)c2ccc(Cl)cc2Cl)c1P(=O)(Nc1ccc([N+](=O)[O-])cc1)N1CCOCC1 (stereo not shown) | -12.6
O=C(O)Cc1ccc(Nc2cnn(C34CC5CC(CC(CC(=O)O)(C5)C3)C4)c(=O)c2Cl)cc1 | 6.78
O=C(/C=C/c1ccco1)Nc1ccc2c(c1)OCCO2 | 19.4
CC(C)(C)C1(C)OC(=O)C(=Cc2ccc(OCC(=O)Nc3ccccc3)cc2)C(=O)O1 (stereo not shown) | -15.5
Cc1ccc(S(=O)(=O)N(C)C)cc1NS(=O)(=O)c1ccc(Cl)s1 | 9.15
C=CCNC(=O)c1c2c(nc3ccccc13)-c1ccccc1CC2 | -46.4
O=C(O)C1CC(=O)N(c2ccc(F)cc2)C1 (stereo not shown) | 14.1
Cc1ccc(N2C(=O)c3ccc(C(=O)O)cc3C2=O)c(C)c1 | 15.3
Cn1ccc(CC(=O)N2CCC(N3CCC(C(=O)N4CCCC4)CC3)CC2)c1 | -9.36
COc1cc(CNCc2ccc(C(=O)O)cc2)ccc1OCc1ccc(F)cc1.Cl | 19.6
CCOc1ccccc1NC(=O)C(OC(=O)c1ccccc1)c1ccccc1 (stereo not shown) | 26.1
O=C(CNCc1cccs1)Nc1cc(S(=O)(=O)N2CCCC2)ccc1Cl | -52
O=C(NC1CCCC1)C(c1ccccc1)N(C(=O)c1ccco1)C1CCCC1 (stereo not shown) | -3.48
CCCCN(Cc1cccs1)S(=O)(=O)c1csc(C(N)=O)c1 | -34.8
CC(=O)N1CCN(C(=O)CSc2nc3c(cnn3-c3ccccc3)c(=O)[nH]2)CC1 | -9.1
O=C(CN1CCC(c2nc3ccccc3s2)CC1)NCc1ccccc1 | -67.5
O=C(Nc1ccccc1)ON=C1CCCC1 | -17.9
COc1cc(/C=C(\C#N)C(=O)Nc2cc(C(F)(F)F)ccc2Cl)ccc1OCC(=O)Nc1cccc(C(F)(F)F)c1 | 12
COc1ccc(Br)cc1CN1CCN(C(=O)c2ccc(F)cc2)CC1.O=C(O)C(=O)O | -13.3

Structure (SMILES) | hERG current change (%, negative = inhibition) at 10uM [%]
COCC(=O)Oc1c(S(=O)(=O)c2ccc(C)cc2)c(C)nn1C(C)(C)C | 16.7
CCn1c(SCC(=O)N2CCN(C)CC2)nc2c1c(=O)n(C)c(=O)n2C | 3.83
COc1ccccc1N1CCN(C(=O)CCCN2C(=O)c3cccc4cccc(c34)C2=O)CC1.Cl | -70.9
COCCN(CCOC)S(=O)(=O)c1ccc(NC(=O)c2cnccn2)cc1 | 13.1
Cc1cc(C)nc(-n2nc(C)cc2NC(=O)c2ccc(S(=O)(=O)N3CCOCC3)cc2)n1 | -9.21
O=C(NCc1cccs1)c1cccnc1Cl | 2.74
CCOc1cc(C2NC(=O)N(C)C(C)=C2[N+](=O)[O-])ccc1OC(C)=O (stereo not shown) | 18.7
Cc1nc(NC(=O)C2CC2)sc1C(=O)Nc1ccccc1Cl | 21.3
Cn1c2c(c(=O)n(C)c1=O)C(C(F)(F)F)(C(F)(F)F)N=C(c1ccccc1Cl)N2 | 21.8
CCOC(=O)C1CCCN(C(=O)c2cccc3ccccc23)C1 (stereo not shown) | 4.99
Cc1ccc(OCC(=O)Nc2cccc(-c3nnc(-c4ccccc4)o3)c2)c(C)c1 | -7.48
CCOc1ccccc1Nc1nnc(SCC(=O)Nc2nc(-c3ccc(OC)cc3)cs2)s1 | 3.33
CCOc1ccccc1NC(=O)COc1ccc2c(c1)OCO2 | 16.3
CCN(C(=O)Cc1c(C(=O)O)[nH]c2ccccc12)c1cc(OC)ccc1OC | 1.38
CN(C(=O)CSc1nnc(-c2ccncc2)n1C)C1CCS(=O)(=O)C1 (stereo not shown) | 8.82
COc1ccc(Cl)cc1NC(=O)CCN1CCN(Cc2ccccc2)CC1 | -64.6
COC(=O)Nc1nnc(CC(=O)Nc2ccccc2C)s1 | -36.5
CCCC(=O)N1CCCC(C(=O)c2cccc(OC(C)C)c2)C1 (stereo not shown) | 3.64
COC(=O)c1cccc(N2C(=O)c3cccnc3C2=O)c1 | 0.872
O=C(CCS(=O)(=O)c1ccc2c(c1)NC(=O)CS2)NCc1cccs1 | -21.3
C#CC1(NC(=O)NS(=O)(=O)c2ccc(C)cc2)CCCCC1 | -12.7
Cc1c(CCC(=O)NCCCCCC(=O)O)c(=O)oc2c(C)c3oc4c(c3cc12)CCCC4 | 21

Structure (SMILES) | hERG current change (%, negative = inhibition) at 10uM [%]
Cc1ccc(NC(=O)CN(C)S(=O)(=O)c2cccs2)cc1C | -9.54
COc1ccc(NC(=O)CSc2nnc(-c3ccncc3)n2C)cc1 | 26.5
CN(C)c1nc(N)nc(Cn2nnc(-c3ccc(C(F)(F)F)cc3)n2)n1 | 33.1
CN(C)/N=C/c1c(O)ccc2ccccc12 | -4.31
O=C(C/C=N\OCc1ccc([N+](=O)[O-])cc1)Nc1ccc(F)cc1F | -27.1
COc1ccc(C(=O)O)cc1NC(=S)NC(=O)Cc1ccc(Cl)cc1 | 27.6
O=C(c1ccc2c(=O)n3c(nc2c1)CCCCC3)N1CCN(c2cccc(Cl)c2)CC1 | -41.2
Cc1cc(C)cc(-n2c(C)nc3cc(C(=O)O)ccc32)c1 | 15.9
O=C(Nc1ncc(C(F)(F)F)cc1Cl)C1COc2ccccc2O1 (stereo not shown) | -3.76
CCCCN(C(=O)CCC(=O)Nc1cc(C)on1)C(C(=O)NC(C)(C)CC)c1cccc(OC)c1OC (stereo not shown) | 1.4
Cc1cc(C)cc(OCC(=O)NNC(=O)c2ccoc2C)c1 | 12.1
Cc1ccc2[nH]c(C(=O)N/N=C/c3ccccc3O)c(C)c2c1 | 28.6
COCCOC1CCN(C(=O)C2CCC(=O)N(CCc3cccc(F)c3)C2)CC1 (stereo not shown) | 0.0129
Cc1ccc(S(=O)(=O)NCC(=O)OCC(=O)Nc2ccc3c(c2)OCCO3)cc1 | -6.88
c1ccc(Cn2nnnc2C(c2cccnc2)N2CCN(c3ccccc3)CC2)cc1 (stereo not shown) | -22.5
Cc1ccc(NC(=O)CCNS(=O)(=O)c2cccc3nonc23)cc1 | 1.21
CCOc1cccc(N2C(=O)/C(=C/c3ccco3)C(=O)NC2=S)c1 | 17.6
COc1cccc(C(=O)Nc2ccc3c(c2)CCCN3C(=O)c2cccs2)c1OC | -5.76
CCOc1cc(C(c2c(C)[nH][nH]c2=O)c2c(C)[nH][nH]c2=O)ccc1OS(=O)(=O)c1ccc(C)cc1 | 7.37
